Assay results published in PubChem BioAssay AID1508642 (National Center for Advancing Translational Sciences (NCATS), 2021).
Hit rate of the full screen: of about 43,000 compounds, about 200 (0.47%) were called active. Another 12% or so got no clear call; they are omitted. The call rests on the fitted dose curve; in most records, active means well fitted cell-killing curve with a large enough effect; inconclusive means small, poorly fitted or top-dose-only effect, or effect the other way; inactive means flat fitted curve, though single readings scatter. This is one part of the list.

assay: Cell viability qHTS assay in S16 Pmp22-F2sN cells; conditions: S16 Pmp22-F2sN Schwann cells (luciferase reporters placed in the Pmp22 gene) viability, CellTiter-Glo, 24 h; series mostly up to 57.5 µM; activity change, negative = cytotoxicity: at the top concentration; further: nearly all actives have a fitted effect of over 65% in size
How it was run: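 S16 Schwann cells carrying the Pmp22-F2sN reporter, seeded in 1536-well format, were exposed to library compounds for 24 h at 37C. Viability was read as CellTiter-Glo luminescence after 15 min at room temperature.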
On the % scale 0 is the no-effect control and ±100 the full control effect.

| SMILES | activity change, negative = cytotoxicity |
| --- | --- |
| COc1ccccc1CNC(=O)CC(c1ccc(C)cc1)N1Cc2ccccc2C1=O (stereo not drawn) | inactive: 2.02% |
| Cc1cc(C)cc(-n2ccn(Cc3ccccc3C)c(=O)c2=O)c1 | inactive: -1.81% |
| Cc1ccc(OCC(=O)OC2=C(C(=O)c3ccccc3)N(C)S(=O)(=O)c3ccccc32)cc1 | inactive: -10.7% |
| Cc1ccccc1NC(=O)c1sc2nc3n(c(=O)c2c1C)CCC3 | inactive: -2.25% |
| Cc1oc(-c2ccc(C(=O)NCCC(C)C)cc2)nc1CN1CCc2ccccc21 | inactive: 21.5% |
| COC(=O)CSc1nc2sc3c(c2c(=O)n1-c1ccccc1C)CC(C)(C)OC3 | inactive: 0.972% |
| Clc1ccc(-c2nc3c4cnn(-c5ccccc5Br)c4ncn3n2)c(Cl)c1 | inactive: 13.5% |
| CC(C)c1nn2c(=O)cc(COC(=O)c3cccc(NC(=O)c4cccs4)c3)nc2s1 | inactive: -15.4% |
| CCCOc1ccc(-c2nonc2NC(=O)c2cc(OC)c(OC)c(OC)c2)cc1OCCC | inactive: -18.9% |
| CCc1ccc(C2=NN(CCC(=O)NCCc3ccc(OC)c(OC)c3)C(=O)CC2)cc1 | inactive: 15.2% |
| Cc1ccc(N2CC(NC(=O)c3cc4ccccc4o3)CC2=O)cc1C (stereo not drawn) | inactive: 0.724% |
| CCc1ccccc1NC(=O)CCOc1ccccc1 | inactive: 0.449% |
| COCCNC(=O)c1c[nH]c2ccc(S(=O)(=O)Nc3ccc(F)cc3F)cc2c1=O | inactive: -2.99% |
| Cn1ccc2c(OCC(=O)NCc3ccccc3)cccc2c1=O | inactive: -5.55% |
| CCOC(=O)c1cnc2nc(NCc3cccc(Br)c3)[nH]n2c1=O | inactive: 2.9% |
| CCc1ccccc1NC(=O)Cn1c(=O)n(-c2ccc(CC(=O)NCC3CCCO3)cc2)c(=O)c2ccccc21 (stereo not drawn) | inactive: -1.73% |
| COc1ccc(CSc2nc3ccncc3n2CC(=O)Nc2ccc(C)c(F)c2)cc1 | inactive: -2.17% |
| Cc1ccccc1C(=O)Nc1ccc2nc(SCC(=O)N3CCc4ccccc43)sc2c1 | inactive: -1.18% |
| COc1ccc(CNC(=O)c2ccc3c(c2)N(Cc2ccc(C)cc2)CCS3)cc1 | inactive: -1.88% |
| CCOc1ccc(CNc2nc3nc(C)c(Cc4ccccc4)c(=O)n3[nH]2)cc1 | inactive: -0.41% |
| COc1ccc2c(c1)CC(C(=O)Nc1cc(Cl)ccc1C)CO2 (stereo not drawn) | inactive: -7.49% |

| SMILES | activity change, negative = cytotoxicity |
| --- | --- |
| CCc1ccc(CNC(=O)C2Cc3cc(S(=O)(=O)N4CCCCCC4)ccc3N2C(C)=O)cc1 (stereo not drawn) | inactive: 22.7% |
| Cc1cn2c(=O)cc(COc3ccc(Cl)cc3)nc2s1 | inactive: -0.402% |
| COc1cc(NC(=O)Nc2cccc(-c3noc(C)n3)c2)cc(OC)c1OC | inactive: -11.3% |
| CCOc1ccc(-n2c(=O)c3c(C)c(C)sc3n(CC(=O)N(CC)Cc3ccccc3)c2=O)cc1 | inactive: -17.4% |
| Cc1ccc(Cl)cc1NC(=O)Cc1ccc(-n2c(C)nc3cccnc32)cc1 | inactive: -11.3% |
| Cc1cccc(NC(=O)C2CCC(CNS(=O)(=O)c3ccc(Br)s3)CC2)c1 (stereo not drawn) | inactive: -8.45% |
| Cc1ccc(OCC(=O)Nc2ccc(Cl)c(-c3nc4ncccc4o3)c2)c(C)c1 | inactive: 18.9% |
| COc1cccc(C2CC(=O)N(c3ccc(F)cc3)C3=C2C(=O)OC3)c1OC (stereo not drawn) | inactive: -0.362% |
| COc1cc(C2c3c(oc4ccccc4c3=O)C(=O)N2c2ccccn2)cc(OC)c1OC (stereo not drawn) | inactive: -4.26% |
| COc1ccc(N(Cc2cccs2)C(=O)c2ccc(OCC(C)C)cc2)cc1 | inactive: -0.426% |
| CCCc1nn2c(=O)cc(COC(=O)c3ccccc3NC(=O)c3cccs3)nc2s1 | inactive: -13.4% |
| Cc1ccc(S(=O)(=O)c2nc(S(C)(=O)=O)sc2N(C)Cc2ccccc2)cc1 | inactive: -0.264% |
| Cc1cccc(NC(=O)C2CCC(CNS(=O)(=O)c3csc(C(N)=O)c3)CC2)c1C (stereo not drawn) | inactive: 25% |
| COCCCNC(=O)CSc1nc2c(sc3ccccc32)c(=O)n1CCc1ccccc1 | inactive: 20.6% |
| COc1cc(NC(=O)CSc2nc3ccccc3nc2Cc2ccc(Cl)cc2)cc(OC)c1 | inactive: 6.32% |
| Cc1nc2c(c(C)c1CCC(=O)NCc1ccccc1)c(=O)n(C)c(=O)n2C | inactive: -1.06% |
| CCOC(=O)c1cccc(NC(=O)c2cc3c(-c4cccc(OC)c4)nn(C)c3s2)c1 | inactive: -5.4% |
| Cc1nn(C)c2c1c(-c1ccccc1)cc(=O)n2CC(=O)Nc1ccccc1C(F)(F)F | inactive: 3.02% |
| COc1ccc(NCc2cc3cc4c(cc3n(CC(=O)Nc3cc(C)cc(C)c3)c2=O)OCO4)cc1 | inactive: 9.19% |
| O=C(COc1ccccc1Cl)Nc1nnc(S(=O)(=O)N2CCCCCC2)s1 | inactive: 6.13% |
| O=C(NCCCc1nc2ccccc2n1Cc1c(F)cccc1Cl)C1CCCCC1 | inactive: 2.65% |

| SMILES | activity change, negative = cytotoxicity |
| --- | --- |
| COc1cccc(Nc2cc(C)nc3nc(-c4ccc(Cl)cc4)nn23)c1 | inactive: 2.48% |
| N#Cc1c(N)n(-c2cccc(Cl)c2)c2nc3ccccc3nc12 | inactive: 15.8% |
| Cc1nn2c(=O)cc(COc3ccc(/C=C(\C#N)C(=O)Nc4ccc(F)cc4)cc3)nc2s1 | inactive: -1.57% |
| CCCCNC(=O)CCCn1c(=O)c2ccccc2n(Cc2cccc(Cl)c2)c1=O | inactive: -2.9% |
| Cn1c(CN2CCCCC2)nc2cc(NC(=O)c3ccccc3Cl)ccc21 | inactive: 7% |
| Cc1ccc(OCC(=O)Nc2ccc3nc(SCC(=O)N4CCOCC4)sc3c2)cc1 | inactive: 1.58% |
| NC(=O)c1nc(Nc2ccccc2)sc1NC(=O)c1ccccc1Br | inactive: -14.9% |
| COc1ccc2nc(NC(=O)c3nc(SC(C)C)ncc3Cl)sc2c1 | inactive: 3.58% |
| O=C(NC1CCCC1)c1cc(Nc2cccc(C(F)(F)F)c2)nc2ccccc12 | inactive: 1.13% |
| CCC(=O)N1CCc2cc(Br)cc(S(=O)(=O)CCC(=O)N3CCN(c4ccccc4F)CC3)c21 | inactive: -3.86% |
| Cc1cc2oc(=O)cc(C)c2c2occ(-c3ccc(Cl)cc3)c12 | inactive: -2.67% |
| Cc1cccc(N2CCN(C(=O)Cn3ncc4c5ccccc5n(C)c4c3=O)CC2)c1C | inactive: 8.33% |
| COc1ccc(C(=O)Nc2ccc(-n3nncc3-c3ccccc3)cc2)cc1OC | inactive: -25.1% |
| COc1cc(OC)cc(-c2cc3nc(C)c(CCC(=O)NCc4ccc(Cl)cc4)c(C)n3n2)c1 | inactive: -4.27% |
| Cc1ccc(-n2nc(CO)c(C(=O)NCc3cccnc3)n2)cc1 | inactive: 5.21% |
| CCc1ccccc1Nc1nc2ccccc2c2nncn12 | inactive: 0.24% |
| CCc1ccc(S(=O)(=O)c2cn(Cc3ccccc3)c3cc(F)c(F)cc3c2=O)cc1 | inactive: -1.82% |
| Cc1ccc2[nH]c3c(=O)n(CC(=O)N4CCCCC4)ncc3c2c1 | inactive: 4.87% |
| Cc1ccc(C)n1-c1nnc(N2CCCC(C(=O)NCc3cccc(F)c3)C2)s1 (stereo not drawn) | inactive: -14.7% |
| COc1ccc(OC)c(CNC(=O)C2CCN(c3nc4ccccc4nc3C(F)(F)F)CC2)c1 | inactive: 27.1% |
| COc1ccc(CCNC(=O)C(=O)NCC(c2cccs2)S(=O)(=O)c2ccc(C)cc2)cc1 (stereo not drawn) | inactive: 5.55% |
